# According to paper PMC6919601, “Identification of Plasmodium dipeptidyl aminopeptidase allosteric inhibitors by high throughput screening” (PLoS ONE, 2019):
# Among all 110,000 compounds or so, about 230 (0.21%) showed an effect of 50% or more. The list shows a part of the results.
# Molecular target: DPAP1 (Plasmodium falciparum, UniProt Q8IIJ9)
# Test: primary screen, percent inhibition; read by cleavage of a fluorogenic dipeptide substrate; higher = more effect of the substance
# Parameters: species or system P. falciparum D10 trophozoite lysates; single well
# 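Further: 30 min substrate incubation versus DMSO and 10 µM JCP410 controls.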
# Sequence of DPAP1 (Q8IIJ9 whole entry, looked up): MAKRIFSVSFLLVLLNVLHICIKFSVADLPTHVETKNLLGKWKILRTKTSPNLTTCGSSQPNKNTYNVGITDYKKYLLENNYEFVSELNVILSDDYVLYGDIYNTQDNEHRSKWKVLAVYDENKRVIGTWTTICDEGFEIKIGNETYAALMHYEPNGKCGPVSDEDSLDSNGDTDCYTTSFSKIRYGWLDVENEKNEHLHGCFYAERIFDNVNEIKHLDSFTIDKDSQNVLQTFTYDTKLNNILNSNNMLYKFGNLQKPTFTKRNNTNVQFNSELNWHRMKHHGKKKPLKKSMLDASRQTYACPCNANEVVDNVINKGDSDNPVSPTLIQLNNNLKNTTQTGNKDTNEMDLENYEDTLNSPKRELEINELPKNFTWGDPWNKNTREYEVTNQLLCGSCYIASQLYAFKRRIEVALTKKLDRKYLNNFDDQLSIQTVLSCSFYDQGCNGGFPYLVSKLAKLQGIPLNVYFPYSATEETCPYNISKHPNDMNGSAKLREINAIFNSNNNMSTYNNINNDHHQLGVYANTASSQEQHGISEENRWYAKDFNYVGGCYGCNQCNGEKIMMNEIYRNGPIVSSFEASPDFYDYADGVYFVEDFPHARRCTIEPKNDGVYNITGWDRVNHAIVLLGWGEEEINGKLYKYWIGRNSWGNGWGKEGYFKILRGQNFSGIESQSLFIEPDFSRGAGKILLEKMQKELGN
row,Structure (SMILES),% Inhibition @ 10 uM [%]
1,CCc1nnc(NC(=O)c2cccc(S(=O)(=O)N(CC)CC)c2)s1,-6.46
2,CCOC(=O)C(/C=N/c1cc(-c2cccc(Br)c2)[nH]n1)=C(\O)OCC,-6.17
3,OCCCNc1nc(O)c2c(n1)-c1ccccc1CC21CCCCC1,-2.15
4,Cc1ccc(Cn2c(=O)c3cccnc3n(Cc3ccc(C#N)cc3)c2=O)cc1,-11.2
5,CC(=O)Nc1ccc(NC(=O)C2CCCCC2)cc1C,-0.756
6,CC(=O)c1ccc(NC(=O)Cn2nc(C(F)(F)F)cc2C2CC2)cc1,-1.04
7,c1ccc2c(CN3CCOCC3)ccnc2c1,2.91
8,CC(Cc1c[nH]c2ccccc12)N1C(=O)C2CCCCC2C1=O (stereo not drawn),1.52
9,CCOc1ccc(Nc2nc(-c3c(C)nc4ccccn34)cs2)cc1,2.23
10,COc1ccc(C2NC(=O)C(C)S2)cc1 (stereo not drawn),-3.79
11,COCCNC(=O)C1=CC(c2ccc(OC)cc2)=NS(=O)(=O)N1C,0.444
12,CC1(c2ccccc2)CC(C)(C)N2C(=O)Cc3cccc1c32 (stereo not drawn),-2.77
13,O=C1OC(c2cccs2)=N/C1=C/c1cccc2ccccc12,0.952
14,CC1CCN(S(=O)(=O)c2ccc(NC(=O)c3ccc4c(c3)OCO4)cc2)CC1,-1.63
15,CCC(C)NC(=O)c1ccccc1-c1nc2ccccc2[nH]1 (stereo not drawn),23.4
16,COc1cc(C)cc2oc(=O)cc(C)c12,2.41
17,O=C(O)CC(NC(=O)c1ccncc1)c1ccccc1 (stereo not drawn),0.222
18,CCOc1ccccc1NC(=O)C1=C(C)NC(=O)NC1c1ccc(F)cc1 (stereo not drawn),-5.69
19,CCc1nnc2c3c4c(sc3nc(CC)n12)CCCC4,-8.12
20,CCCCCn1c(=O)c(C(=O)Nc2cccc(C)c2)c(O)c2ccccc21,-2.88
21,CSc1nc(C)cc(Oc2ccc(=O)n(C)n2)n1,-2.14
22,CNC(=O)CSc1cn(CC(=O)N2CCOCC2)c2ccccc12,4.8
23,CCn1cc(C(=O)N2CCC3(CC2)OCCO3)c2cc(OC)c(OC)cc2c1=O,-7.33
24,Cc1ccc(N2C(=O)NC(=O)/C(=C/Nc3ccc(S(=O)(=O)NCc4ccccc4)cc3)C2=O)cc1,2.45
25,COCCN1C(=O)c2oc3ccc(F)cc3c(=O)c2C1c1ccc(C(=O)OC)cc1 (stereo not drawn),0.628
26,CCc1ccc(CN2CCN(Cc3cccc(OC)c3OC)CC2)cc1,-1.68

row,Structure (SMILES),% Inhibition @ 10 uM [%]
1,c1ccc(CCNc2nc3c(-c4ccccc4)nnn3c3ccccc23)cc1,-6.52
2,CC1(C)Cc2ccccc2-c2nnc(C(F)(F)F)n21,3.01
3,O=C(C1CC1)N1CCN(Cc2ccccc2)CC1,-7.63
4,CCSC(=O)N(CC)CC(=O)Nc1c(CC)cccc1CC,1.92
5,CCCN(CCC)C(=O)c1cc(S(=O)(=O)N2CCOCC2)cn1C,1.1
6,CCc1ccc(C2C(C#N)=C(N)Oc3c2c(O)nc2ccccc32)cc1 (stereo not drawn),-0.446
7,O=C(COc1ccccc1)Nc1cccc2c1CCCC2,1.92
8,COc1ccc(S(=O)(=O)c2cnc3ccc(F)cc3c2O)cc1,-0.22
9,Cc1ccc(S(=O)(=O)Cc2c(C)noc2C)cc1,-1.61
10,CCOc1ccccc1NC(=O)C1CC(=O)N(c2ccc(CC)cc2)C1 (stereo not drawn),-1.96
11,CNC(=O)C1=C(C)NC(=O)NC1c1ccccc1F (stereo not drawn),-1.57
12,CNC(=O)CN(c1ccc(C)cc1)S(=O)(=O)c1ccc(OC)c(Br)c1,-3.04
13,Cc1nnc(N2C(=O)C(O)=C(C(=O)c3ccc(F)cc3)C2c2cccc(Oc3ccccc3)c2)s1 (stereo not drawn),2.17
14,CC(C)N(CCCNC(=O)Cn1ncc2c3ccccc3n(C)c2c1=O)Cc1ccccc1,3.2
15,COc1cc(CO)cc(Br)c1OCC(=O)N1CCCCC1,-6.02
16,COc1ccc(CCNc2nc3ccc(C(=O)c4ccccc4)cc3n3c(C)nnc23)cc1OC,4.95
17,CCCCNC(=O)c1ccc(CS(=O)(=O)Cc2ccccc2F)o1,-2.72
18,Fc1ccc(C2NCc3ccccc3-n3cccc32)cc1 (stereo not drawn),-2.54
19,Cc1nn(CCC(=O)N2CCOCC2)c(=O)c2nn(-c3ccccc3)c(C)c12,1.26
20,CNc1ncc(Br)nc1N,-1.08
21,CCC(C)NC(=O)c1ccc2c(c1)ncn2-c1cc(C)cc(C)c1 (stereo not drawn),-5.64
22,CCc1ccccc1NC(=O)c1c(OC)cccc1OC,0.317
23,CCOc1ccc(CCNC(=O)c2nnc(Cc3ccc4c(c3)OCO4)o2)cc1OCC,2
24,O=C(c1cccc(Cl)c1)N1CCN(c2ccc3nnc(-c4ccccc4)n3n2)CC1,-1.37
25,O=C(NCCCc1ccccc1)c1ccc(CNc2c(N3CCCC3)c(=O)c2=O)cc1,1.22
26,COCCCNC(=O)c1cnn(-c2ccccc2)c1-n1cccc1,0.137

row,Structure (SMILES),% Inhibition @ 10 uM [%]
1,CCOC(=O)c1c(C)nc(S)c(C#N)c1-c1ccc(OC)cc1,52.9
2,O=C1C2C3C=CC(C3)C2C(=O)N1CNc1ccccc1Cl (stereo not drawn),-17.9
3,CCc1c(C)nc2nncn2c1NCc1ccccc1OC,-0.808
4,COC(=O)C1=C(C)N(c2ccc(C)c(C)c2)C(=O)C1,-3.38
5,CC1(C)C=Cc2c(ccc3ccccc23)S1,4
6,COC(=O)c1sccc1NC(=S)N(C)C1CCCCC1,0.813
7,Cc1cccc(OCCn2c(=O)oc3ccc(C)cc32)c1,-2.16
8,O=C1NC(=O)C2(CCC(C(=O)O)C2)N1 (stereo not drawn),1.68
9,Brc1cccc(-c2nc(C3CCCCC3)no2)c1,5.51
10,O/C(=C\c1nc2ccccc2nc1O)c1ccc(Cl)cc1,3.96
11,CCN(CC)c1ccc2c(c1)OC(N)=C(C#N)C2c1ccccc1F (stereo not drawn),-0.988
12,COc1ccc(OC)c(C2/C(=C(\O)OC3CCCCC3)C(C)=Nc3ncnn32)c1 (stereo not drawn),6.03
13,Nc1nonc1-c1noc(-c2cc3cc(Br)ccc3oc2=O)n1,-6.56
14,CCOc1cc(/C=C2/NC(=O)N(Cc3ccccc3F)C2=O)ccc1OCc1ccccc1,-5.51
15,COc1ccc(NC(=O)C2(C)CC3C=CC2C3)cc1 (stereo not drawn),-2.54
16,CCN1C(=O)c2cccc3c(NS(=O)(=O)c4ccccc4)ccc1c23,-1.29
17,COCCNC(=O)Cn1ncc2c1-c1cc(C)ccc1OC2,-7.48
18,CC(C)CS(=O)(=O)C1=NSC2=NC(=O)/C(=C\c3ccc(-c4cccc(C(=O)O)c4)o3)C(=N)N21,-7.21
19,COc1cccc(CSc2nc3ccncc3n2CC(=O)N2CCCC2)c1,-2.37
20,C=CCn1c(SCC(=O)NCC2CCCO2)nc2sc3c(c2c1=O)CCCCC3 (stereo not drawn),-2.77
21,Cc1ccccc1NC(=O)CS(=O)(=O)c1ccc2ccccc2c1,-0.25
22,Cn1c(OCc2ccco2)nc2c1c(=O)n(Cc1ccc(F)cc1)c(=O)n2C,3.74
23,CCc1cc(C(c2ccc(Cl)cc2)N2CCN(CCO)CC2)c(NC(=O)c2ccccc2)s1 (stereo not drawn),0.0289
24,CC(C)S(=O)(=O)C1=NSC2=NC(=O)/C(=C\c3ccc(O)c(O)c3)C(=N)N21,-5.27
25,COc1cc2c(cc1OC)C(COc1ccc(F)cc1)N(C(=O)c1cccc(OC)c1OC)CC2 (stereo not drawn),-8.41
26,CC(=O)c1ccc(NC(=O)c2ccc(-c3ccc(C(=O)Nc4ccc(C(C)=O)cc4)cc3)cc2)cc1,-0.425

row,Structure (SMILES),% Inhibition @ 10 uM [%]
1,O=C(COc1ccc(Cl)cc1)Nc1cccc(Br)c1,1.62
2,Cc1nnc2n1Nc1nc3ccccc3nc1S2,4.84
3,COc1ccc(-c2nc3n(c2N)CCS3)cc1,-2.91
4,Cc1ccc(CN(CC(=O)Nc2ccc3c(c2)OCCO3)S(=O)(=O)c2ccc(C)cc2)cc1,-4.12
5,COc1ccc(OC)c(C2CC(=O)C3=C(C2)NC(=O)CC3c2ccc(Cl)c(Cl)c2)c1 (stereo not drawn),2.54
6,Cc1ccc(NC(=O)CN2C(=O)S/C(=C\c3ccc(OCC#N)cc3)C2=O)cc1,2.55
7,Cc1cc(-c2ccc(C)c(S(=O)(=O)NC(C)(C)C)c2)on1,1.67
8,CCOC(=O)c1nnc(Cc2ccc(C)cc2)o1,-2.23
9,Cc1ccccc1CNC(C)c1ccccc1 (stereo not drawn),-1.38
10,Cc1cc(NC(=O)c2ccccc2Oc2ccccc2)no1,-3.41
11,Cc1cccc(NC(=O)Cn2nc(C(F)(F)F)cc2C2CC2)c1,-6.05
12,CCOC(=O)c1cc2c(=O)n3ccccc3nc2n(CC(C)C)/c1=N/C(=O)c1ccc(OC)cc1,1.26
13,COc1ccccc1N1CCN(C(=O)c2cccs2)CC1,-3.13
14,COc1cc(Br)c(C2CC(=O)NC(C)=C2C(=O)OCc2ccc(C)cc2)cc1OC (stereo not drawn),3.04
15,CCN(CC)CCOCCOc1cc(C)cc(C)c1,-2.91
16,COC(=O)c1sccc1NC(=O)CN1Cc2ccccc2C1=O,-2.41
17,Cc1nn2c(=O)cc(COc3ccc(/C=C4\C(=N)N5N=CSC5=NC4=O)cc3)nc2s1,-3.95
18,Cc1occc1C(=O)Nc1sc2c(c1C#N)CCCCCC2,10
19,CC(=O)c1c(C)oc2ccc(N(C(C)=O)S(=O)(=O)c3cc(C)ccc3C)cc12,-5.4
20,Cc1ccc(N2C(=O)CC(N3CCC(C)CC3)C2=O)cc1 (stereo not drawn),18.7
21,CCCCC(=O)Nc1cc2c(cc1C(C)=O)OCO2,-1.84
22,OC1CCCN(Cc2cccc(Cl)c2Cl)C1 (stereo not drawn),-6.47
23,CCOC(=O)N1CCN(C(=O)C(NC(=O)c2ccc(C34CC5CC(CC(C5)C3)C4)cc2)C(C)C)CC1 (stereo not drawn),4.69
24,COc1ccc(N(CN2C(=O)C3C4c5ccccc5C(c5ccccc54)C3C2=O)C(C)=O)cc1 (stereo not drawn),-9.75
